From PubChem BioAssay AID1963576 (National Center for Advancing Translational Sciences (NCATS), 2024)
Hit rate of the full screen: of about 46,000 compounds, about 60 (0.1%) were called active. Not shown: some 3% with an inconclusive outcome. Calls come from the whole dose curve; as a rule, active = well fitted inhibition curve with a large enough effect; inconclusive = small, poorly fitted or top-dose-only effect; inactive = no such curve, though single readings can be large or run the other way. Some of the results follow.

assay: Primary qHTS assay for Inhibitors of ovarian cancer metastasis using an organotypic tumor microenvironment (TME) model.; note: nearly all actives have a fitted effect of over 65% in size;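 for activity change, negative = inhibition: plate controls were DMSO wells for no effect and tomatine positive control wells for full effect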; conditions: SKOV3ip1-GFP adhesion/invasion on 3D omental model, fluorescence; series mostly up to 45.8 µM; activity change, negative = inhibition: at the top concentration
Summary of the method: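 Adhesion/invasion was scored as fixed GFP-labeled SKOV3ip1 cell counts (488/509 nm), normalized to DMSO and tomatine controls. Cancer cells in serum-free medium, with four compound doses (0.36-46 umol/L), sat 2 hr at RT then 16 hr at 37 C on a 48 hr fibroblast/mesothelial/ECM culture.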

outcome, inactive:
COc1ccc2c(c1)sc1ncc(C(=O)NCc3ccccc3F)c(=O)n12, CCCCNC(=O)CSc1nc2n[nH]c(C)c2c(=N)n1-c1cccc(Cl)c1C, CCOc1ccc(NS(=O)(=O)c2ccc(C(=O)N(C)C)s2)cc1, O=C(c1cccc(Cl)c1)N1c2nc(-c3ccco3)nn2C2(CCCCC2)[C@@H]2CCCC[C@@H]21, COC(=O)c1scc(-c2ccc(C)cc2)c1S(=O)(=O)N1CCN(c2ccccc2)CC1, COc1cccc(NC(=O)CC(=O)Nc2ccc3nc4n(c(=O)c3c2)CCCCC4)c1, COc1cc(OC)cc(N2C(=O)N(Cc3ccc(C(C)(C)C)cc3)c3ccccc3S2(=O)=O)c1, CCOC(=O)N1CCN(C(=O)CN(c2ccccc2F)S(=O)(=O)c2ccc(C)cc2)CC1, Cc1ccc(C)c(CN2C(=O)C(O)(c3c(C)[nH]c4ccccc34)c3ccccc32)c1 (stereo not given), Nc1c(C(=O)Nc2ccccc2Cl)c2ccccn2c1C(=O)c1ccccc1, Cc1ccccc1CNC(=O)C(C)N(c1ccccc1)S(C)(=O)=O (stereo not given), O=C(CSc1ccc(-c2cccs2)nn1)Nc1ccccc1C(F)(F)F, COc1ccc(-n2c(-c3ccco3)nc3c(cnn3-c3ccc(Cl)cc3)c2=O)cc1, COc1ccccc1NC(=O)c1c(NCc2ccc(C)o2)sc2c1CCCCC2, CCc1ccc(NC(=O)Cn2c(=O)n(CCC(C)C)c(=O)c3cccnc32)cc1, CCCc1nn2c(=O)cc(COC(=O)c3ccccc3NC(=O)COc3ccccc3)nc2s1, CCOC(=O)c1cc(S(=O)(=O)Nc2cc(F)ccc2C)[nH]n1, COc1ccc2c(c1)c(=O)c(S(=O)(=O)c1ccccc1)cn2CC(=O)Nc1ccc(C)c(Cl)c1, COc1cccc(CNC(=O)Cn2nc(-c3ccc(Cl)cc3)ccc2=O)c1, CC(C)CC(=O)Nc1nnc(S(=O)(=O)N(C)Cc2ccc(Cl)cc2)s1, CCOC(=O)c1c(C)[nH]c(C)c1S(=O)(=O)N1CCCC(C(=O)NCc2ccc(N(C)C)cc2)C1 (stereo not given), CCOc1ccc(NC(=O)CSc2oc(-c3ccc(F)cc3)nc2S(=O)(=O)c2ccc(C)cc2)cc1, Cc1ccc(CN(Cc2ccco2)C(=O)c2oc3cc(Br)ccc3c2C)cc1, CC1=C(C(=O)OCC2CCCCC2)C(c2ccc(Cl)cc2)CC(=O)N1 (stereo not given), COc1ccccc1NC(=O)c1oc2ccccc2c1NC(=O)COc1cccc(C)c1, CCc1ccc(N(CC)C(=O)Cn2nc(Cc3cccnc3)c3ccccc3c2=O)cc1, Cc1cccc(Cn2c(=O)n(Cc3ccccc3)c(=O)c3c2c2cc(C)ccc2n3C)c1, CCOC(=O)c1sc2ccccc2c1S(=O)(=O)Nc1ccc(C(C)=O)cc1, CC(=O)N1CCc2cc(S(=O)(=O)C(C)CC(=O)Nc3ccc(Br)c(C)c3)ccc21 (stereo not given), COc1ccc2nc(N(Cc3cccnc3)C(=O)Cc3ccccc3)sc2c1, Cc1cccc(-n2c(CNC(=O)c3cccc(F)c3)nnc2SCC(=O)Nc2ccccc2F)c1

Activity change, negative = inhibition, inactive:
COc1ccc(S(=O)(=O)Nc2ccc3oc4c(c3c2)CCCC4)cc1 -21%, Cc1cccc(-c2noc(-c3cccnc3NCc3ccc(Cl)cc3)n2)c1 1.03%, CC1(C)N=C(SCc2ccccc2Cl)c2ccccc2N1 -6.77%, COc1ccc(CCNC(=O)CCCCn2c(=O)c3ccccc3n(CC(=O)Nc3c(C)cccc3C)c2=O)cc1OC -13%, C#CCn1c(=NC(=O)c2ccc3c(c2)OCCO3)sc2cc(OC)c(OC)cc21 -3.32%, Cc1ccccc1C(=O)N1CC(=O)Nc2ccc(Cl)cc2C1c1ccccc1 (stereo not given) 1.9%, O=C(CCSCc1cccc(Cl)c1)N1CCN(c2ccc(Cl)cc2)CC1 -2.72%, Cc1nc2ccc(S(=O)(=O)CCC(=O)Nc3ccc(Cl)cc3)cc2s1 -12.2%, Cc1nn(-c2ccc(N3CCCCC3)nn2)c(C)c1CCC(=O)Nc1ccc(F)cc1F -5.78%, CCOC(=O)c1c(C)[nH]c(C)c1S(=O)(=O)NCC(=O)Nc1cccc(C#N)c1 3.6%, COc1ccc(S(=O)(=O)N2CCC(C(=O)Nc3ccccc3)CC2)cc1OC 8.24%, Cc1ccc(Cn2cc(S(=O)(=O)c3cccc(Cl)c3)c(=O)c3cc(F)c(N4CCCCC4)cc32)cc1 8.17%, Cc1cc(N2CCC(C)CC2)nc2ccc(NC(=O)Cc3c(F)cccc3Cl)cc12 -4.75%, COc1ccc(OC)c(CNC(=O)c2ccc3c(c2)c(C)c(C)n3Cc2ccc(Cl)cc2)c1 2.28%, O=C(C1CCCN(S(=O)(=O)c2cccc3nsnc23)C1)N1CCN(c2ccccc2)CC1 (stereo not given) 6.46%, CCc1ccc(NC(=O)CN(c2ccc(Cl)cc2)S(=O)(=O)c2ccsc2C(=O)OC)cc1 2.63%, CCOc1ccc(NC(=O)c2c(NCc3cccc(OC)c3OC)sc3c2CCC3)cc1 4%, CCOC(=O)c1noc2nc(C)n(CC(=O)NC(C)CC)c(=O)c12 (stereo not given) -5.81%, Nc1ccccc1NC(=O)c1ccc(CNC(=O)OCc2cccnc2)cc1 -23.6%, O=C(NCc1cccs1)c1ccc2c(c1)N(Cc1cccc(F)c1)C(=O)c1ccccc1S2 1.79%, Cc1ccc(Cl)cc1NC(=O)CSc1nccn1C 6.17%, COC(=O)c1c(NC(=O)Cc2coc3cc(C)ccc23)sc2c1CCC2 -0.728%, Cc1cc(C)cc(NC(=O)CSc2nc(=O)n(CCN3CCOCC3)c3c2CCC3)c1 -5.24%, Cc1oc(-c2cccc(Cl)c2)nc1CS(=O)(=O)CC(=O)NC(C)CCc1ccccc1 (stereo not given) -9.23%, CCCCN(CC)C(=O)c1nn(C)c2c1CSc1ccccc1-2 3.77%, CCOc1ccccc1CNC(=O)c1ccc2c(c1)N(Cc1ccc(C)cc1)CCS2 -17.2%, CC(=O)c1cccc(NC(=O)CSc2nc(=O)n(Cc3ccco3)c3c2CCC3)c1 4.46%, COc1ccc(Cl)cc1NC(=O)C(C)Sc1nc2c(c(=O)[nH]1)CCCC2 (stereo not given) 3.18%, O=C(CCC1N=C2c3ccccc3N=C(SCc3ccc(F)cc3)N2C1=O)NCCc1ccccc1 (stereo not given) -15.4%, Cc1ccc(NC(=O)C2CCCN(C(=O)c3cnn(-c4ccc(F)cc4)c3-n3cccc3)C2)c(Cl)c1 (stereo not given) -1.31%, CC1(C)O[C@H]2[C@@H](O1)[C@@H](C(=O)Nc1ccccc1C(F)(F)F)O[C@@H]1OC(C)(C)O[C@@H]12 15%, O=C(NCCc1ccccc1Cl)C1CCN(c2nc3ccccc3nc2C(F)(F)F)CC1 -29.5%, CCc1ccccc1NS(=O)(=O)c1ccc2c(c1)CC(=O)N2 -20.7%, CC(=O)Nc1nonc1-c1nnc(SCc2ccccc2F)n1C -0.164%, COc1ccc(-c2cc(C(F)(F)F)n3nc(-c4ccccc4)cc3n2)cc1OC 9.54%, CCCCSc1nnc2n(-c3ccc(OC)cc3)c(=O)c3c4c(sc3n12)COC(C(C)C)C4 (stereo not given) -0.0854%, CC(=O)c1ccc(N2CCN(c3ncnc4c3c(-c3ccccc3)cn4-c3ccc(Cl)cc3)CC2)cc1 14.1%, Cc1ccc(/C=C/c2onc(C)c2S(=O)(=O)N2CCC(C(=O)Nc3ccccc3C(F)(F)F)CC2)cc1 -7.81%, COc1ccc(-n2c(=O)c3c(c4cc(OC)ccc4n3C)n(Cc3cccc(C)c3)c2=O)cc1 18.1%, Cc1cccc2c1N(Cc1ccccc1OCCC(C)C)C(=O)C2=O -4.95%, CC(=O)c1ccc(NC(=O)c2cc(C)nc3c2c(C)nn3-c2ccc(C)cc2)cc1 -0.787%, CC1=C(C(=O)Nc2ccc(C)cc2C)C(c2cccs2)n2nc(SCc3cccc(C)c3)nc2N1 (stereo not given) -4.08%, CNC(=O)CSc1cn(CC(=O)N2CCCCCC2)c2ccccc12 1.38%, CCC(C(=O)Nc1cccc(-c2nc3cccnc3s2)c1C)c1ccccc1 (stereo not given) -2.91%, COc1ccc(-n2cc(C(=O)NCCc3cc(OC)ccc3OC)c3ccccc3c2=O)cc1 -1.04%, O=C(CCOc1ccccc1)N(Cc1cccnc1)c1nc2ccc(Cl)cc2s1 -4.39%, COc1ccc(OC)c(NC(=O)CN2C(=O)CC(C)Sc3ccccc32)c1 (stereo not given) 7.28%, COc1ccc(CNC(=O)Cn2ccc3cc(S(=O)(=O)N4CCCCC4)ccc32)cc1OC -8.95%, Cc1ccc(-n2c(=O)c3c4c(sc3n(Cc3cc(=O)n5ccccc5n3)c2=O)CCC4)cc1C 5.82%, Cc1nc2nc(NC(=O)c3ccc(C(C)(C)C)cc3)[nH]n2c(=O)c1Cc1ccccc1 -6.74%, O=C(Nc1ccc(Br)cc1F)c1cc(S(=O)(=O)NC2CCCCC2)ccc1F 4.26%, Clc1ccccc1-c1nnc(COc2ccccc2)o1 27.1%, COc1cc(CN2CCN(S(=O)(=O)c3ccc(NC(C)=O)cc3)CC2)cc(OC)c1OC -4.8%, O=C1N(Cc2ccccc2Cl)c2ccccc2C1(O)c1c[nH]c2ccccc12 (stereo not given) 8.83%, Cc1ccc2oc(-c3ccc(C)c(NC(=O)C(C)(C)Oc4ccc(Cl)cc4)c3)nc2c1 -29%, COc1ccc(Cl)cc1NC(=O)N(C)CCc1c(C)nn(C)c1C -7.39%, CSc1ncc(C(=O)Nc2ccc(C)c(Cl)c2)c(-c2ccccc2)n1 -0.545%, CCOC(=O)c1cc(C)n(CC2CCC(C(=O)Nc3ccccc3OC)CC2)c1C (stereo not given) -3.13%, CC(=O)c1ccc(NS(=O)(=O)c2c(C)nc3scc(C)n3c2=O)cc1 1.59%, CCn1cc(C(=O)NCCc2ccc(OC)c(OC)c2)c(=O)c2cc(S(=O)(=O)N3CCCCCC3)ccc21 5.53%, CN(C)S(=O)(=O)c1ccc(C(=O)NCCSc2c(-c3ccccc3)[nH]c3ccccc23)cc1 -9.43%, COc1ccc(N(Cc2cc3cccc(C)c3[nH]c2=O)C(=O)c2cccc(Cl)c2)cc1 14.4%, CC1CCN(CC2CCN(C(=O)Nc3ccc(Br)cc3F)CC2)CC1 2.2%, O=C(C1CCN(S(=O)(=O)Cc2ccccc2)CC1)N1CCN(c2cccc(C(F)(F)F)c2)CC1 4.21%
